# Measurements published in patent US7592316B2, “Peptides as NS3-serine protease inhibitors of hepatitis C virus” (Schering Corporation, priority 2000, dated 2009).
# *1 amine or outer side, *2 acyl side, *3 side chain or, on linkers, in order; H or OH if unused. Where a SMILES comes first, the peptide text is derived from it. [ ]: non-standard residue; d: D form. The star is where a group is joined. ξ: configuration not given here. Pro(3R,4S-CMe2) = CC1(C)[C@@H]2[C@@H](C(=O)O)NC[C@@H]21; Pro(trans-4-Ph) = O=C(O)[C@@H]1C[C@@H](c2ccccc2)CN1; Pro(4,4-S(CH2)3S) = O=C(O)[C@@H]1CC2(CN1)SCCCS2; ξPhg(3,5-(OMe)2) = COc1cc(OC)cc(C(N)C(=O)O)c1; ξPro(4,4-S(CH2)3S) = O=C(O)C1CC2(CN1)SCCCS2; Cyclohexanecarbonyl = O=C(C1CCCCC1)*; Isobutyloxycarbonyl = CC(C)COC(=O)*; X8 = O=C(C(=O)[*:2])C(CC1CC1)N[*:1]; Cyclohexylacetyl = O=C(CC1CCCCC1)*; Hyp = O=C(O)[C@@H]1C[C@@H](O)CN1; X2 = CCCC(N[*:1])C(=O)C(=O)[*:2]; Chg = N[CH](C(=O)O)C1CCCCC1; Phg = N[CH](C(=O)O)c1ccccc1; Tle = CC(C)(C)[C@H](N)C(=O)O; ξCha = NC(CC1CCCCC1)C(=O)O; ξChg = NC(C(=O)O)C1CCCCC1; ξPhg = NC(C(=O)O)c1ccccc1; Morpholide = C1CN(*)CCO1; X36 = O=C(CC1CC2CCC1C2)*; Boc = CC(C)(C)OC(=O)*; ξNle = CCCCC(N)C(=O)O; ξV = CC(C)C(N)C(=O)O; Bn = c1ccc(C*)cc1; OtBu = CC(C)(C)O*; ξS = NC(CO)C(=O)O; tBu = CC(C)(C)*; MEM = COCCOC*
# Target: HCV NS3/NS4A protease (strain 1a) (Hepatitis C virus genotype 1a, UniProt P27958)
# Experiment: biochemical
# Details: Compounds prepared by Solid Phase Synthesis, Table 3; read-out: Ki* CLASS
row,Compound,Ki [nM]
1,CCCC(NC(=O)[C@@H]1C[C@@H](OC(C)(C)C)CN1C(=O)C(NC(=O)OCC(C)C)C1CCCCC1)C(=O)C(=O)NCC(=O)NC(COC(C)(C)C)C(N)=O (some centres unmarked) (Isobutyloxycarbonyl-[ξChg][Hyp](tBu)[X2]G[ξS](tBu)-NH2),101 to 1000
2,CCCCC(NC(=O)C(CCCC)NC(=O)CNC(=O)C(=O)C(CCC)NC(=O)[C@@H]1C[C@@H](OCc2ccccc2)CN1C(=O)C(NC(=O)CC1CCCCC1)C1CCCCC1)C(N)=O (some centres unmarked) (Cyclohexylacetyl-[ξChg][Hyp](Bn)[X2]G[ξNle][ξNle]-NH2),101 to 1000
3,CCCC(NC(=O)[C@@H]1C[C@@H](OC(C)(C)C)CN1C(=O)[C@@H](NC(=O)OC(C)(C)C)C(C)C)C(=O)C(=O)NCC(=O)N[C@H](C(N)=O)c1ccccc1 (some centres unmarked) (Boc-V[Hyp](tBu)[X2]G[Phg]-NH2),101 to 1000
4,CCCC(NC(=O)[C@@H]1C[C@@H](OCc2ccccc2)CN1C(=O)C(NC(=O)C1CCCCC1)C1CCCCC1)C(=O)C(=O)NCC(=O)NC(C(=O)O)c1ccccc1 (some centres unmarked) (Cyclohexanecarbonyl-[ξChg][Hyp](Bn)[X2]G[ξPhg]-OH),101 to 1000
5,CCCC(NC(=O)[C@@H]1C[C@@H](OCc2ccccc2)CN1C(=O)C(NC(=O)OCC(C)C)C(C)C)C(=O)C(=O)NCC(=O)NC(CC1CCCCC1)C(N)=O (some centres unmarked) (Isobutyloxycarbonyl-[ξV][Hyp](Bn)[X2]G[ξCha]-NH2),> 1000
6,"CCCC(NC(=O)[C@@H]1C[C@@H](OC(C)(C)C)CN1C(=O)[C@@H](NC(=O)OCC(C)C)C1CCCCC1)C(=O)C(=O)NCC(=O)NC(C(N)=O)c1cc(OC)cc(OC)c1 (some centres unmarked) (Isobutyloxycarbonyl-[Chg][Hyp](tBu)[X2]G[ξPhg(3,5-(OMe)2)]-NH2)",101 to 1000
7,CCCCC(NC(=O)CNC(=O)C(=O)C(CCC)NC(=O)[C@@H]1C[C@@H](OCOCCOC)CN1C(=O)C(NC(=O)CC1CC2CCC1C2)C1CCCCC1)C(N)=O (some centres unmarked) (X36-[ξChg][Hyp](MEM)[X2]G[ξNle]-NH2),101 to 1000

# Same assay, conditions: HCV protease continuous assay results, Table 1; read-out: Ki* Range
row,Ki [nM],Compound
1,> 1000,CCCC(NC(=O)[C@@H]1C[C@@H](OC(C)(C)C)CN1C(=O)[C@@H](NC(=O)OCC(C)C)C(C)(C)C)C(=O)C(=O)NCC(=O)O (some centres unmarked) [Example 253]
2,> 1000,CC[C@@H](C)C(NC(=O)[C@@H]1C[C@@H](OC(C)(C)C)CN1C(=O)[C@@H](NC(=O)OCC(C)C)C(C)(C)C)C(=O)C(=O)NCC(=O)N[C@@H](c1ccccc1)[C@@H](C)O (some centres unmarked) [Example 346]
3,101 to 1000,CCCC(NC(=O)[C@@H]1CC2(CN1C(=O)C(NC(=O)OC(C)(C)C)C(C)(C)C)SCCCS2)C(=O)C(=O)NCC(=O)NC(COC)c1ccccc1 (some centres unmarked) [Example 223]
4,> 1000,C=CCNC(=O)C(=O)[C@H](CCC)NC(=O)[C@@H]1CCCN1C(=O)[C@@H](NC(=O)CC1C(C)C(C(C)=O)C1C)C(C)C (some centres unmarked) [Example 28]
5,101 to 1000,CCCC(NC(=O)[C@@H]1C[C@@H](OC(C)(C)C)CN1C(=O)[C@@H](NC(=O)OCC(C)C)C(C)(C)C)C(=O)C(=O)NCC(=O)N[C@H](CO)c1ccccc1 (some centres unmarked) [Example 303]

row,Compound,Ki [nM]
1,CCCC(NC(=O)[C@@H]1C[C@@H](c2ccccc2)CN1C(=O)[C@@H](NC(=O)OC(C)(C)C)C1CCCCC1)C(=O)C(=O)NCC(=O)N[C@H](C(N)=O)c1ccccc1 (stereo partly drawn) [Example 71] (Boc-[Chg][Pro(trans-4-Ph)][X2]G[Phg]-NH2),101 to 1000
2,"CCCC(NC(=O)C1CC2(CN1C(=O)C(NC(=O)OCC(C)C)C1CCCCC1)SCCCS2)C(=O)C(=O)NCC(=O)NC(C(=O)N1CCOCC1)c1ccccc1 (centres unmarked) [Example 154] (Isobutyloxycarbonyl-[Chg][ξPro(4,4-S(CH2)3S)][X2]G[Phg]-Morpholide; configuration not given here)",1 to 100
3,"CC(C)COC(=O)N[C@H](C(=O)N1CC2(C[C@H]1C(=O)NC(CC1CC1)C(=O)C(=O)NCC(=O)NC(C(=O)OC(C)(C)C)c1ccccc1)SCCCS2)C(C)(C)C (some centres unmarked) [Example 178] (Isobutyloxycarbonyl-[Tle][Pro(4,4-S(CH2)3S)][X8]G[ξPhg]-OtBu)",1 to 100
4,CCCC(NC(=O)[C@@H]1CCCN1C(=O)[C@@H](NC(=O)OCC(C)C)C(C)C)C(=O)C(=O)NCC(=O)N[C@@H](CC(=O)O)C(=O)O (some centres unmarked) [Example 18] (Isobutyloxycarbonyl-VP[X2]GD-OH),> 1000

# Same assay, conditions: Table 4; HCV NS3/NS4A protease, spectrophotometric assay, 30° C., pH 6.5; read-out: Ki* Range
row,Ki [nM],Compound
1,1 to 100,CCCC(NC(=O)[C@@H]1C[C@@H](CNC(=O)c2ccccc2)CN1C(=O)[C@@H](NC(=O)OCC(C)C)C1CCCCC1)C(=O)C(=O)NCC(=O)N[C@H](C(N)=O)c1ccccc1 (some centres unmarked)
2,1 to 100,CCCC(NC(=O)C1C[C@@H](NC(=O)OCC(C)C)CN1C(=O)[C@@H](NC(=O)OCC(C)C)C1CCCCC1)C(=O)C(=O)NCC(=O)N[C@H](C(N)=O)c1ccccc1 (some centres unmarked)

row,Compound,Ki [nM]
1,"CCCC(NC(=O)[C@@H]1[C@@H]2[C@H](CN1C(=O)[C@@H](NC(=O)OCC(C)C)C1CCCCC1)C2(C)C)C(=O)C(=O)NCC(=O)N[C@H](C(=O)O)c1ccccc1 (stereo partly drawn) (Isobutyloxycarbonyl-[Chg][Pro(3R,4S-CMe2)][X2]G[Phg]-OH)",1 to 100

# Same assay, conditions: Table 5; HCV NS3/NS4A protease, 30° C., pH 6.5; read-out: Ki* Range
row,Ki [nM],Compound
1,101 to 1000,C=CCCC(NC(=O)[C@@H]1[C@@H]2[C@H](CN1C(=O)[C@@H](NC(=O)NC13CC4CC(CC(C4)C1)C3)C1CCCCC1)C2(C)C)C(=O)C(=O)NCC(=O)N(C)Cc1ccccc1 (some centres unmarked)
2,1 to 100,C=CCCNC(=O)C(=O)C(CCC=C)NC(=O)[C@@H]1[C@@H]2[C@H](CN1C(=O)[C@@H](NC(=O)NC13CC4CC(CC(C4)C1)C3)C(C)(C)C)C2(C)C (some centres unmarked)
3,101 to 1000,CCCC(NC(=O)[C@@H]1C2C(CN1C(=O)C(NC(=O)OC(C)(C)C)C1CCCCC1)C2(C)C)C(=O)C(=O)NCCNC(=O)OC(C)(C)C (some centres unmarked)

# Same assay, conditions: Table 5; HCV NS3/NS4A protease, spectrophotometric assay, 30° C., pH 6.5; read-out: Ki* Range
row,Ki [nM],Compound
1,> 1000,CCCC(NC(=O)[C@@H]1[C@@H]2[C@H](CN1C(=O)[C@@H](NC(=O)NCC)C(C)(C)C)C2(C)C)C(=O)C(N)=O (some centres unmarked)
